Data taken from the supplement of paper PMC12632987.
Whole data set: some 1,800 sequences, median “median log2 fold change of GCK-ALFA target abundance (FLAG IP / Myc IP barcode read proportion)” near 0.14, cut for the lowest 2% near -0.84. This is one part of the list.

T1: TRAF2, Q12933
T1 chain: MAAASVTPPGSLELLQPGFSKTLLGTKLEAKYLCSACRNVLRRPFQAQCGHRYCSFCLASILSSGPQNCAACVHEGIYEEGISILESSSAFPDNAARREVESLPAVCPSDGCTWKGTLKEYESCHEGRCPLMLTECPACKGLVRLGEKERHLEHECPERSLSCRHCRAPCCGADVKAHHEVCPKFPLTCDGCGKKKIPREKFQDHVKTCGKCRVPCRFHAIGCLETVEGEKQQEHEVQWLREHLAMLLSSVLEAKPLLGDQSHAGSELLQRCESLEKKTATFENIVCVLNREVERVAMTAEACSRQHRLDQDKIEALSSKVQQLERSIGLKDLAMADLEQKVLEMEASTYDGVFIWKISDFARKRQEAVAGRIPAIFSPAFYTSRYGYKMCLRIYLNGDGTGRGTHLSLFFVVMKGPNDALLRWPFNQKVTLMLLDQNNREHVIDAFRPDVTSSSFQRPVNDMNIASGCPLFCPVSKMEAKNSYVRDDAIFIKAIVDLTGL

B1: traf2_out_11_169_876 (protein)
chain: EEAEKNRKLNDFALELNDKAKKELKEFALKLAKELGLDVEEVKAIFEKNKNKSLSAVAAALIEYFRSKGEEAAAEAILKKHEELKDKINKEFSEKLKELE
B2: traf2_out_15_48_1349 (protein)
chain: SVEDLHRMNREIADLAEETRDELAKRLEELLKKAPESVKPDLEALLQAARNGATLRDIRGALEALLPKVSPELKAELEEMIAEIDEVLRRMSEIARRVLS
B3: traf2_out_19_16_1979 (protein)
chain: AEERLEELERRLEEIERRVEELEEYFEKNEETLTREELSDLLVEVSELKREALEIRERLLELEGVDPERVRELIRRAEEIIERAQRLANKIVERYEELLK
B4: traf2_out_6_169_2497 (protein)
chain: SEEERLREEAERHRERARELLELADTIYEQALKNPDKSLIPTYVEALETMLNALRHHYDRAIEALRKLGKEEEAKELEKEREERVKEMEEKLAELKKLLE
B5: traf2_out_9_17_2624 (protein)
chain: AEAERARHEAMLRVVERVLEELIEEGLITEEEAEEILEKVRKAIEEGKSVDEVRALFLGDVASVLLFDKKLPVKETQEIVGRVYRRIRRLLAEEEARRAA
B6: traf2_out_8_139_2533 (protein)
chain: EEEERRRDEVEKRVIGRIMNTMTRIANRAAATQKTKEEAEKTYLEILHLGGRIARALLSGEDPQPYLDKLEALLLSLGLEDEAKEARETVEAARAELEAA
B7: traf2_out_18_5_1954 (protein)
chain: SREEELREALESAKRILEKEPEIEARAKELGVEELYKQAVKDFTEALENGKDLEKIYLEHKEKFAEKIGDPELAEELVYEIRRYVSAKYAKEVLEEELAA
B8: traf2_out_20_3_2169 (protein)
chain: SELEEELKKELEKAIKTLKEAAKAADAETKARLDALIKRLKASEKLSPSDRLVAVSEIRREVLELAEEARRAGDEELAKLLEKAADYLGRAAQLLYKIIE
B9: traf2_out_16_104_1410 (protein)
chain: AAATQAAFDAIIAQLEAIADELGRLANEIYEKMKTASPEDRKKLSDALVEASEARRRALQAAEAARQARATGGDLAAAQATLAALTAEAARVKEKAKALF
B10: traf2_out_11_155_721 (protein)
chain: SAAREAQNQIVDHNLEIGDELLKEVNKIIEEVAKEDPEVAAKLKEVVEKYKKYSYTSAARAAIDLLREAGLEEEAERLEKALEEAQKKSSEFIQEVEAKL
B11: traf2_out_13_95_1050 (protein)
chain: SAETAKKIMEVADEMMDKALALLKKAQKEFADDPEATAVLTQALDLAEKKGISEAIHLLEEAQAANPEHAEQFAALIAELEALRREAGRKVAEILKEEKE
B12: traf2_out_17_178_1671 (protein)
chain: DKEEHRKKISELTDELIDLTERTGRELLALAEAEGRLSPEELAALRAALASGSANTLLAVARRLAPKLSSAAEAQALLDRFEAEYRELAKGIYEEYKKYE
B13: traf2_out_16_104_1420 (protein)
chain: SAADDAAFDALIAEAEAIAEELGRLANKLYKKLEKASPEEKKKLSDALVEASEARREARQLAEDLRARRAAGGDLAAARAALAALRKRAEEVKKKAEELF
B14: traf2_out_18_167_1869 (protein)
chain: SAELKKEREKLTDELVKYSTIRRHLLEILEALKESREKARALLEKAVAEHPDSEVLKEALEVFETKSDEEVRAFMESKAEELQKKANEYYKKLEELEKKE
B15: traf2_out_14_149_1263 (protein)
chain: DRVKAKLDEILALLEEVVAAARRAAAEGTPEAREALFALIREAAERIEELGKELGYSFSVVFVLEDLAARRDLPLEEVLARLEAALARAKDTAEVLKERA
B16: traf2_out_20_3_2075 (protein)
chain: EELEKELEKRLKEAIKLLKEAAKKADKETAKKLKKLIKELKESEKLSISDRLVAISKVRREVLKLAEEAEAAGKEELAKLLEEAADELNKAAQLAYKILE
B17: traf2_out_16_171_1443 (protein)
chain: AAAEREAALRAEIDAEAQRLLDRMDTMVEMTPLISKETGLSVEQIAAGFRSAMEDRIAAFEAHFTALAADASPEVRAHLAEALARIRAHLDAAIAEILAK
B18: traf2_out_20_3_2267 (protein)
chain: EELEKKYEEYLEKAKKILEELMKKSDEETKEKLKEALKLLEESKKVSPTDALVLLGEAKRIVRELREEALRAGNEELAKLLDEAADEINKAMNYLLKIIE
B19: traf2_out_11_155_704 (protein)
chain: EKKKELQNKLVDEMIKIEDKLKAEVRAIIAAAAAAHPEHAAELAAVVAASAPFSGTSFARVAAAKFRELGLEEEAAQIEELLEKAQKEKNKIYKEIEKKM

Target: T1, TRAF2, Q12933
Assay: median log2 fold change of GCK-ALFA target abundance (FLAG IP / Myc IP barcode read proportion) (log2 ratio); each designed protein is fused to an ALFA-tag nanobody in HEK293 cells to bring the named protein to FLAG-tagged glucokinase (GCK); Myc marks an untargeted standard; higher = target protein stabilised (more abundant)
Details: target protein: 3xFLAG-MCP-GCK-ALFA reporter; HEK293 landing pad (RPLP)
Summary of the method: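 Sequencing of reverse-transcribed, amplified circular RNA barcodes from anti-FLAG and anti-Myc immunoprecipitates provided the readout for an ALFA-nanobody-fused binder library recombined into HEK293 landing-pad cells. Those cells were induced with 2 μg mL^−1 doxycycline, transfected with a plasmid expressing a FLAG-tagged target and a Myc-tagged standard, and lysed after 48 h. Target abundance is the per-binder median log2 ratio of FLAG to Myc barcode read proportions. Only barcodes at a proportion of ≥10^−7 in both replicates and binders with ≥3 barcodes per replicate were kept, with a 10^−6 pseudocount added before the two replicates were pooled.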

Binder | median log2 fold change
B1 | -0.227
B2 | 0.186
B3 | 0.263
B4 | 0.331
B5 | -0.102
B6 | 0.0288
B7 | 0.118
B8 | 0.0887
B9 | 0.302
B10 | 0.302
B11 | 0.0662
B12 | 0.0387
B13 | 0.673
B14 | -0.0291
B15 | 0.166
B16 | 0.208
B17 | -0.0454
B18 | 0.634
B19 | 0.154
